# This is one part of the list. The list includes weakly bound sequences.
# Biological target: T1, MBP-FoxP3dN (UniProt Q99JB6)
# T1 sequence: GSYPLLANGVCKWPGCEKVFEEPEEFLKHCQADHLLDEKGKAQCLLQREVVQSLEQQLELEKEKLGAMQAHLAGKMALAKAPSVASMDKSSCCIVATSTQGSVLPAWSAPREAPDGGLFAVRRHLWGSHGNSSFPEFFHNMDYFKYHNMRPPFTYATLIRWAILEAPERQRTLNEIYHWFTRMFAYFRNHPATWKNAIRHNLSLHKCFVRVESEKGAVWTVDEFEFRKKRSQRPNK
# Test: PD-seq (MBP pull-down with sequencing)
# Conditions: 20 mM Tris-HCl pH 7.5, 100 mM NaCl, 1.5 mM MgCl2, 0.4 uM protein, 0.1 uM dsDNA library, 30 min, room temperature, amylose pull-down; high values mean tight binding; double strand, one strand shown
row,Sequence,binding signal (RPM ratio (pull-down/input))
1,GATGATTGTTCTCCCAGCTGATGAATTCGAGGGATCGAGTAAACAAATTTTCCTAATCTTTCTGTTCAAGCGCCATCTAC,0.267
2,GATGATTGTTCTCCCAGCTGATGAATTTGCGCAATCGAGTAAACAAATTTTCCTAATCTTTCTGTTCAAGCGCCATCTAC,3.76
3,GATGATTGTTCTCCCAGCTGATGAATTACCACATTCGAGTAAACAAATTTTCCTAATCTTTCTGTTCAAGCGCCATCTAC,0.486
4,GATGATTGTTCTCCCAGCTGATGAATTCAAACGGTCGAGTAAACAAATTTTCCTAATCTTTCTGTTCAAGCGCCATCTAC,0.276
5,GATGATTGTTCTCCCAGCTGATGAATTGAGGACTTCGAGTAAACAAATTTTCCTAATCTTTCTGTTCAAGCGCCATCTAC,0.391
6,GATGATTGTTCTCCCAGCTGATGAATTCAGGAATTCGAGTAAACAAATTTTCCTAATCTTTCTGTTCAAGCGCCATCTAC,0.513
7,GATGATTGTTCTCCCAGCTGATGAATTATAGGGGTCGAGTAAACAAATTTTCCTAATCTTTCTGTTCAAGCGCCATCTAC,0.335
8,GATGATTGTTCTCCCAGCTGATGAATTCAATACATCGAGTAAACAAATTTTCCTAATCTTTCTGTTCAAGCGCCATCTAC,0.717
9,GATGATTGTTCTCCCAGCTGATGAATTTTCCCGTTCGAGTAAACAAATTTTCCTAATCTTTCTGTTCAAGCGCCATCTAC,0.209
10,GATGATTGTTCTCCCAGCTGATGAATTAACGGGTTCGAGTAAACAAATTTTCCTAATCTTTCTGTTCAAGCGCCATCTAC,0.329
11,GATGATTGTTCTCCCAGCTGATGAATTCTACGGGTCGAGTAAACAAATTTTCCTAATCTTTCTGTTCAAGCGCCATCTAC,0.199
12,GATGATTGTTCTCCCAGCTGATGAATTGCGTAATTCGAGTAAACAAATTTTCCTAATCTTTCTGTTCAAGCGCCATCTAC,1.58
13,GATGATTGTTCTCCCAGCTGATGAATTATCTGGATCGAGTAAACAAATTTTCCTAATCTTTCTGTTCAAGCGCCATCTAC,0.217
14,GATGATTGTTCTCCCAGCTGATGAATTTGCCCCGTCGAGTAAACAAATTTTCCTAATCTTTCTGTTCAAGCGCCATCTAC,0.335
15,GATGATTGTTCTCCCAGCTGATGAATTATTGGTATCGAGTAAACAAATTTTCCTAATCTTTCTGTTCAAGCGCCATCTAC,1.68
16,GATGATTGTTCTCCCAGCTGATGAATTCCTAATCTCGAGTAAACAAATTTTCCTAATCTTTCTGTTCAAGCGCCATCTAC,0.291
17,GATGATTGTTCTCCCAGCTGATGAATTGTCTCTATCGAGTAAACAAATTTTCCTAATCTTTCTGTTCAAGCGCCATCTAC,0.469
18,GATGATTGTTCTCCCAGCTGATGAATTGTGAATTTCGAGTAAACAAATTTTCCTAATCTTTCTGTTCAAGCGCCATCTAC,2.02
19,GATGATTGTTCTCCCAGCTGATGAATTGAAGGGTTCGAGTAAACAAATTTTCCTAATCTTTCTGTTCAAGCGCCATCTAC,0.354
20,GATGATTGTTCTCCCAGCTGATGAATTGTTCGGTTCGAGTAAACAAATTTTCCTAATCTTTCTGTTCAAGCGCCATCTAC,0.379
21,GATGATTGTTCTCCCAGCTGATGAATTGTGTGAGTCGAGTAAACAAATTTTCCTAATCTTTCTGTTCAAGCGCCATCTAC,2.81

row,Sequence,binding signal (RPM ratio (pull-down/input))
1,GATGATTGTTCTCCCAGCTGATGAATTGTACGCGTCGAGTAAACAAATTTTCCTAATCTTTCTGTTCAAGCGCCATCTAC,0.669
2,GATGATTGTTCTCCCAGCTGATGAATTATCCACGTCGAGTAAACAAATTTTCCTAATCTTTCTGTTCAAGCGCCATCTAC,0.283
3,GATGATTGTTCTCCCAGCTGATGAATTTACCTAATCGAGTAAACAAATTTTCCTAATCTTTCTGTTCAAGCGCCATCTAC,0.617
4,GATGATTGTTCTCCCAGCTGATGAATTGGATGTCTCGAGTAAACAAATTTTCCTAATCTTTCTGTTCAAGCGCCATCTAC,1.48
5,GATGATTGTTCTCCCAGCTGATGAATTTTATATTTCGAGTAAACAAATTTTCCTAATCTTTCTGTTCAAGCGCCATCTAC,0.903
6,GATGATTGTTCTCCCAGCTGATGAATTGCCAAAGTCGAGTAAACAAATTTTCCTAATCTTTCTGTTCAAGCGCCATCTAC,0.348
7,GATGATTGTTCTCCCAGCTGATGAATTATAATTCTCGAGTAAACAAATTTTCCTAATCTTTCTGTTCAAGCGCCATCTAC,0.584
8,GATGATTGTTCTCCCAGCTGATGAATTAAGATCCTCGAGTAAACAAATTTTCCTAATCTTTCTGTTCAAGCGCCATCTAC,0.315
9,GATGATTGTTCTCCCAGCTGATGAATTGTTAGTATCGAGTAAACAAATTTTCCTAATCTTTCTGTTCAAGCGCCATCTAC,4.23
10,GATGATTGTTCTCCCAGCTGATGAATTCCCAATTTCGAGTAAACAAATTTTCCTAATCTTTCTGTTCAAGCGCCATCTAC,0.285
11,GATGATTGTTCTCCCAGCTGATGAATTAGCGTCCTCGAGTAAACAAATTTTCCTAATCTTTCTGTTCAAGCGCCATCTAC,1.18
12,GATGATTGTTCTCCCAGCTGATGAATTGAGCCGCTCGAGTAAACAAATTTTCCTAATCTTTCTGTTCAAGCGCCATCTAC,1.04
13,GATGATTGTTCTCCCAGCTGATGAATTGATGTGATCGAGTAAACAAATTTTCCTAATCTTTCTGTTCAAGCGCCATCTAC,0.886
14,GATGATTGTTCTCCCAGCTGATGAATTAAAGGAGTCGAGTAAACAAATTTTCCTAATCTTTCTGTTCAAGCGCCATCTAC,0.228
15,GATGATTGTTCTCCCAGCTGATGAATTAATCTCGTCGAGTAAACAAATTTTCCTAATCTTTCTGTTCAAGCGCCATCTAC,0.222
16,GATGATTGTTCTCCCAGCTGATGAATTCTAGACCTCGAGTAAACAAATTTTCCTAATCTTTCTGTTCAAGCGCCATCTAC,0.236
17,GATGATTGTTCTCCCAGCTGATGAATTGGCGCTCTCGAGTAAACAAATTTTCCTAATCTTTCTGTTCAAGCGCCATCTAC,0.52
18,GATGATTGTTCTCCCAGCTGATGAATTAGTGTGCTCGAGTAAACAAATTTTCCTAATCTTTCTGTTCAAGCGCCATCTAC,2.52
19,GATGATTGTTCTCCCAGCTGATGAATTATCGAACTCGAGTAAACAAATTTTCCTAATCTTTCTGTTCAAGCGCCATCTAC,0.289
20,GATGATTGTTCTCCCAGCTGATGAATTGCTAGGCTCGAGTAAACAAATTTTCCTAATCTTTCTGTTCAAGCGCCATCTAC,0.452
21,GATGATTGTTCTCCCAGCTGATGAATTGGATATCTCGAGTAAACAAATTTTCCTAATCTTTCTGTTCAAGCGCCATCTAC,0.756

row,Sequence,binding signal (RPM ratio (pull-down/input))
1,GATGATTGTTCTCCCAGCTGATGAATTCTGCATATCGAGTAAACAAATTTTCCTAATCTTTCTGTTCAAGCGCCATCTAC,3.42
2,GATGATTGTTCTCCCAGCTGATGAATTCGAGTAGTCGAGTAAACAAATTTTCCTAATCTTTCTGTTCAAGCGCCATCTAC,0.423
3,GATGATTGTTCTCCCAGCTGATGAATTATTAGTGTCGAGTAAACAAATTTTCCTAATCTTTCTGTTCAAGCGCCATCTAC,1.29
4,GATGATTGTTCTCCCAGCTGATGAATTAAGGGAATCGAGTAAACAAATTTTCCTAATCTTTCTGTTCAAGCGCCATCTAC,0.216
5,GATGATTGTTCTCCCAGCTGATGAATTTGCGACCTCGAGTAAACAAATTTTCCTAATCTTTCTGTTCAAGCGCCATCTAC,0.862
6,GATGATTGTTCTCCCAGCTGATGAATTAATTTTGTCGAGTAAACAAATTTTCCTAATCTTTCTGTTCAAGCGCCATCTAC,2.25
7,GATGATTGTTCTCCCAGCTGATGAATTCAGATGATCGAGTAAACAAATTTTCCTAATCTTTCTGTTCAAGCGCCATCTAC,0.441
8,GATGATTGTTCTCCCAGCTGATGAATTTGGGGGGTCGAGTAAACAAATTTTCCTAATCTTTCTGTTCAAGCGCCATCTAC,1.04
9,GATGATTGTTCTCCCAGCTGATGAATTCAGCACTTCGAGTAAACAAATTTTCCTAATCTTTCTGTTCAAGCGCCATCTAC,0.696
10,GATGATTGTTCTCCCAGCTGATGAATTGATGTTTTCGAGTAAACAAATTTTCCTAATCTTTCTGTTCAAGCGCCATCTAC,2.47
11,GATGATTGTTCTCCCAGCTGATGAATTCCAACAATCGAGTAAACAAATTTTCCTAATCTTTCTGTTCAAGCGCCATCTAC,0.562
12,GATGATTGTTCTCCCAGCTGATGAATTCTGTCGGTCGAGTAAACAAATTTTCCTAATCTTTCTGTTCAAGCGCCATCTAC,0.564
13,GATGATTGTTCTCCCAGCTGATGAATTGTCACAATCGAGTAAACAAATTTTCCTAATCTTTCTGTTCAAGCGCCATCTAC,1.19
14,GATGATTGTTCTCCCAGCTGATGAATTCCAGAACTCGAGTAAACAAATTTTCCTAATCTTTCTGTTCAAGCGCCATCTAC,0.17
15,GATGATTGTTCTCCCAGCTGATGAATTCGGGCATTCGAGTAAACAAATTTTCCTAATCTTTCTGTTCAAGCGCCATCTAC,4.9
16,GATGATTGTTCTCCCAGCTGATGAATTAGCCTCTTCGAGTAAACAAATTTTCCTAATCTTTCTGTTCAAGCGCCATCTAC,1.7
17,GATGATTGTTCTCCCAGCTGATGAATTAGACTCATCGAGTAAACAAATTTTCCTAATCTTTCTGTTCAAGCGCCATCTAC,0.502
18,GATGATTGTTCTCCCAGCTGATGAATTCCAATAATCGAGTAAACAAATTTTCCTAATCTTTCTGTTCAAGCGCCATCTAC,0.325
19,GATGATTGTTCTCCCAGCTGATGAATTAACACTATCGAGTAAACAAATTTTCCTAATCTTTCTGTTCAAGCGCCATCTAC,0.529
20,GATGATTGTTCTCCCAGCTGATGAATTTACTAGCTCGAGTAAACAAATTTTCCTAATCTTTCTGTTCAAGCGCCATCTAC,0.547
21,GATGATTGTTCTCCCAGCTGATGAATTACTCATCTCGAGTAAACAAATTTTCCTAATCTTTCTGTTCAAGCGCCATCTAC,0.431

# Source: PMC12820563
